From PubChem BioAssay AID1508623 (National Center for Advancing Translational Sciences (NCATS), 2021) come the findings set out here.

The campaign covered roughly 48,000 compounds. About 450 (0.94%) were called active. About 19% were inconclusive and are not listed. The call rests on the fitted dose curve; in most records, active means well fitted inhibition curve with a large enough effect; inconclusive means small, poorly fitted or top-dose-only effect; inactive means no such curve, though single readings can be large or run the other way. Some of the results follow.

The nature of this test: Primary qHTS for Identification of Small Molecule Inhibitors of Huntingtin Promoter Activity. Further: nearly all actives have a fitted effect of over 50% in size. Conditions: HEK293 HTT promoter firefly luciferase reporter (activity 0% = vehicle and -100% = no light), 24 h; series mostly up to 57.5 µM; activity change, negative = inhibition: at the top concentration. Summed up:
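HEK293 Fluc reporter, 2,500 cells/well, 24 h pre-culture; cpds up to 57.5 uM final, 24 h 37 degrees C; Dual-Glo, 10 min RT; normalized vehicle = 0%, zero RLU = -100%.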
On the technique in general: qHTS replaces the single test concentration by a dilution series.
On to `Cc1ccc(CNc2nc3ccccc3n3c(C)nnc23)cc1`, for which the “activity change, negative = inhibition” value is inactive: -9.69%. The figure for `Cc1ccc(Sc2c(C)nn(C(=O)COc3ccc(F)cc3)c2C)cc1` is inactive: -12.3%; for `Cc1onc(-c2ccccc2)c1-c1ccc(S(N)(=O)=O)cc1` it is inactive: -7.47%; for `O=C(NCCN1CCN(c2ccccc2)CC1)Nc1ccccc1Br` it is inactive: -3.48%. `Cc1cccc(CNC(=O)C2CCN(c3nnc(-n4c(C)ccc4C)s3)CC2)c1`: the “activity change, negative = inhibition” value was inactive: -21.2%.

On to `Cc1cccc(-c2noc(CN(C(=O)c3ccccc3Cl)C(C)C)n2)c1`, for which the “activity change, negative = inhibition” value was inactive: -19.7%. The figure for `COc1ccc(CCNC(=O)CCCn2c(=O)c3ccccc3n(Cc3ccc(F)cc3Cl)c2=O)cc1OC` is inactive: -2.63%. As to `Cn1c(C(=O)NCCc2ccccc2)cc2c(=O)n3ccccc3nc21`, the “activity change, negative = inhibition” value is inactive: 54.3%. Next, `Cc1ccc(CNc2nc3ccccc3c3nc(-c4cccc(C)c4)nn23)cc1`: inactive: 33.6%. On to `COc1ccc(Cn2c(CNS(=O)(=O)c3ccc4c(c3)CCCC4)nc3cccnc32)cc1`, for which the “activity change, negative = inhibition” value is inactive: -14.4%. Next, `O=C(c1cnc(N2CCCCC2)c2ccccc12)N1CCN(c2ccccc2F)CC1`: inactive: -18.5%; `Cc1ccc2c(c1)c1c(c(=O)n(Cc3ccccc3)c(=O)n1Cc1cccc(C(F)(F)F)c1)n2C`: inactive: -6.07%; `c1csc(C2=NC(c3ccncc3)=Nc3ccccc3N2)c1`: inactive: -5.38%. The figure for `O=C(CSC1=Nc2ccccc2N=C(c2ccc(F)cc2)C1)NCc1ccccc1` is inactive: -13.7%; for `CC(=O)N1CCc2cc(CNS(=O)(=O)c3ccc(Br)s3)ccc21` it is inactive: -5.46%; for `CCOc1ccc(C(=O)NCCc2sc3nc(-c4ccc(Cl)cc4)nn3c2C)cc1OCC` it is inactive: -9.3%.

On to `O=C(NCCc1ccc(Cl)cc1)c1ccc(Cn2c(=O)c3cccn3c3cccnc32)cc1`, for which the “activity change, negative = inhibition” value was inactive: -30.2%.

Regarding `CC1CCCN(Cc2cn3c(-c4cccc(Br)c4)nnc3s2)C1` (centres undefined), the “activity change, negative = inhibition” value is inactive: 1.91%. The entry for `CCCc1cc(=O)[nH]c(=S)[nH]1` is “inactive”; for `CC(C(=O)Nc1cc(C(F)(F)F)ccc1Cl)n1nnc2sc3c(c2c1=O)CCCC3` (centres undefined) it is inactive: -7.36%; for `Cc1ccccc1C(=O)NCc1nc2cccnc2n1Cc1ccccc1` it is inactive: 0.917%. Next, `Cc1ccc2oc(-c3ccc(C)c(NC(=O)c4ccc(C(C)(C)C)cc4)c3)nc2c1`: inactive: -2.04%; `Cc1ccc(-c2csc(=Nc3ccccc3)n2Cc2ccc3c(c2)OCO3)cc1C`: inactive: 23.9%. Regarding `CCN1CCN(C(c2ccccc2)c2sc3nc(-c4ccco4)nn3c2O)CC1` (centres undefined), the “activity change, negative = inhibition” value was inactive: 8.25%. Next, `CCOc1ccccc1C(=O)Oc1c(Sc2ccccc2)c(C)nn1C(C)(C)C`: inactive: -3.02%. Turning to `COc1ccccc1C(=O)n1nc(-c2ccco2)nc1NCc1ccc(Cl)cc1`, the “activity change, negative = inhibition” value was inactive: 46.9%.

In the case of `COc1ccccc1NC(=O)c1c(NCc2ccc(C)o2)sc2c1CCC(C)C2` (centres undefined), the “activity change, negative = inhibition” value is inactive: -26.5%. Next, `COCCc1nn2c(=O)cc(COC(=O)COc3ccc(F)cc3)nc2s1`: inactive: -2.48%; `CCCOC(=O)c1c(NC(=O)C2c3ccccc3Oc3ccccc32)sc2c1CCC(C)C2` (centres undefined): inactive: -23.5%; `CCC(O)c1cc2c(cc1NC(=O)c1cccc(Br)c1)OCCO2` (centres undefined): inactive: -2.94%. The figure for `O=C(O)[C@H](Cc1c[nH]c2ccccc12)N1C(=O)c2ccccc2C1=O` is inactive: -22.2% [at 116 µM]; for `COc1ccc(-c2nc3ccccc3o2)cc1NC(=O)C(C)Oc1ccc(Cl)cc1Cl` (centres undefined) it is inactive: -1.27%; for `CC(C)C12CN3CC(C(C)C)(CN(C1)C3c1ccc(Cl)cc1)C2=O` (centres undefined) it is inactive: -7.12%. Next, `CN(C)CCCN(C(=O)c1cccs1)c1nc2ccc(F)cc2s1`: inactive: 10.1%; `Cc1ccc(CNC(=O)CSc2nc(=O)[nH]c3c2CCCC3)cc1`: inactive: -4.35%; `O=C(CN1C(=O)CCc2cc(S(=O)(=O)N3CCOCC3)ccc21)Nc1cccc(Cl)c1`: inactive: -22.8%. On to `CCCSc1ncc(Cl)c(C(=O)N(Cc2ccc(N(C)C)cc2)C2CCS(=O)(=O)C2)n1` (centres undefined), for which the “activity change, negative = inhibition” value is inactive: -25.9%. Take `COc1ccc(NC(=O)Cn2cnc3sc(C)c(S(=O)(=O)N4CCN(C)CC4)c3c2=O)cc1Cl`: the “activity change, negative = inhibition” value is inactive: -1.29%.

Take `CCOC(=O)CNC(=O)N1CCc2cc(S(=O)(=O)N3CCC(C)CC3)ccc21`: the “activity change, negative = inhibition” value was inactive: -17.4%. Next, `CCOC(=O)c1ccc(N2C(=O)c3n[nH]c(C)c3C2c2ccc(C(C)(C)C)cc2)cc1` (centres undefined): inactive: 2.84%; `CNC(=O)C1CCC(Cn2c(=O)[nH]c3ccsc3c2=O)CC1` (centres undefined): inactive: 0.899%; `Cc1ccccc1-n1c(/C=C/c2c(C)n(C)c3ccccc23)nc2ccccc2c1=O`: inactive: -10.6%. Regarding `CC(C)(C)OC(=O)N1CCC(c2c(C(=O)N3CCN(c4ncccn4)CC3)cnn2-c2ccccc2)CC1`, the “activity change, negative = inhibition” value is inactive: 5.84%. On to `CCOC(=O)c1cccc(NC(=O)c2cc(CN3CCOCC3)on2)c1`, for which the “activity change, negative = inhibition” value was inactive: 60.9%.

Take `CSc1ccc(CNc2ncc(-c3ccccc3)n2C)cc1`: the “activity change, negative = inhibition” value is inactive: -20.9%. The figure for `CCOC(=O)c1ccc(NC(=O)COCc2cc(-c3ccc4c(c3)OCO4)on2)cc1` is inactive: -8.06%; for `COc1ccc2c(c1)c(=O)c(S(=O)(=O)c1ccc(Cl)cc1)cn2C` it is inactive: -17.3%; for `Cc1ccccc1CNC(=O)C1CCN(c2nnc(-n3c(C)ccc3C)s2)CC1` it is inactive: -17.5%. Take `CC(=O)Nc1c(C)nn(-c2ccccc2)c1N1CCC(C(=O)Nc2ccc(F)cc2Cl)CC1`: the “activity change, negative = inhibition” value is inactive: 10.3%.
